Experimental data reported in the supplement of paper PMC8728848.
Some of the results follow.

Key:
Assay in all cases: glycan array binding signal (z-score within array); higher = stronger binding
Details in all cases: glycan notation: IUPAC condensed, linker removed
[1] = biological target: Neu5Ac(a2-3)Gal(b1-3)GlcNAc(b1-3)Gal(b1-4)GlcNAc
Method in brief: (§1)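 Arrays were curated from the Consortium for Functional Glycomics database, 3228 in total, and kept only where the protein sequence was available. Binding is expressed as a within-array Z-score. This score was averaged across arrays of the same protein sequence at different concentrations or buffers and across linkers, and negative values can be read as non-binding.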

[2] = biological target: Neu5Ac(a2-3)Gal(b1-3)GlcNAc(b1-3)GalNAc
Method in brief: as §1

[3] = biological target: Neu5Ac(a2-3)Gal(b1-3)GlcNAc(b1-4)Gal(b1-4)Glc
Method in brief: as §1

[4] = biological target: Neu5Ac(a2-3)Gal(b1-3)GlcNAc(b1-6)GalNAc
Method in brief: as §1

[5] = biological target: Neu5Ac(a2-3)Gal(b1-3)GlcNAc6S
Method in brief: as §1

[6] = biological target: Neu5Ac(a2-3)Gal(b1-3)[Fuc(a1-4)]GlcNAc
Method in brief: as §1

[7] = biological target: Neu5Ac(a2-3)Gal(b1-3)[Fuc(a1-4)]GlcNAc(b1-3)Gal(b1-3)[Fuc(a1-4)]GlcNAc
Method in brief: as §1

[8] = biological target: Neu5Ac(a2-3)Gal(b1-3)[Fuc(a1-4)]GlcNAc(b1-3)Gal(b1-4)[Fuc(a1-3)]GlcNAc
Method in brief: as §1

[9] = biological target: Neu5Ac(a2-3)Gal(b1-3)[GlcNAc(b1-6)]GalNAc
Method in brief: as §1

[10] = biological target: Neu5Ac(a2-3)Gal(b1-3)[Neu5Ac(a2-3)Gal(b1-4)]GlcNAc
Method in brief: as §1

[11] = biological target: Neu5Ac(a2-3)Gal(b1-3)[Neu5Ac(a2-6)]GalNAc
Method in brief: as §1

[12] = biological target: Neu5Ac(a2-3)Gal(b1-3)[Neu5Ac(a2-6)]GlcNAc(b1-3)[Fuc(a1-3)[Gal(b1-4)]GlcNAc(b1-6)]Gal(b1-4)Glc
Method in brief: as §1

[13] = biological target: Neu5Ac(a2-3)Gal(b1-3)]Neu5Ac(a2-3)Gal(b1-4)]GlcNAc
Method in brief: as §1

Neu5Ac(a2-3)Gal(b1-4)Glc = biological target: Neu5Ac(a2-3)Gal(b1-4)Glc
Method in brief: as §1

[14] = biological target: Neu5Ac(a2-3)Gal(b1-4)GlcNAc
Method in brief: as §1

[15] = biological target: Neu5Ac(a2-3)Gal(b1-4)GlcNAc(b1-2)Man
Method in brief: as §1

[16] = biological target: Neu5Ac(a2-3)Gal(b1-4)GlcNAc(b1-2)Man(a1-3)[GlcNAc(b1-4)][Neu5Ac(a2-3)Gal(b1-4)GlcNAc(b1-2)Man(a1-6)]Man(b1-4)GlcNAc(b1-4)GlcNAc
Method in brief: as §1

[17] = biological target: Neu5Ac(a2-3)Gal(b1-4)GlcNAc(b1-2)Man(a1-3)[Neu5Ac(a2-3)Gal(b1-4)GlcNAc(b1-2)Man(a1-6)]Man(b1-4)GlcNAc(b1-4)GlcNAc
Method in brief: as §1

[18] = biological target: Neu5Ac(a2-3)Gal(b1-4)GlcNAc(b1-2)Man(a1-3)[Neu5Ac(a2-3)Gal(b1-4)GlcNAc(b1-2)Man(a1-6)]Man(b1-4)GlcNAc(b1-4)[Fuc(a1-6)]GlcNAc
Method in brief: as §1

[19] = biological target: Neu5Ac(a2-3)Gal(b1-4)GlcNAc(b1-2)Man(a1-3)[Neu5Ac(a2-6)Gal(b1-4)GlcNAc(b1-2)Man(a1-6)]Man(b1-4)GlcNAc(b1-4)GlcNAc
Method in brief: as §1

[20] = biological target: Neu5Ac(a2-3)Gal(b1-4)GlcNAc(b1-2)[Neu5Ac(a2-3)Gal(b1-4)GlcNAc(b1-4)]Man(a1-3)[GlcNAc(b1-4)][Neu5Ac(a2-3)Gal(b1-4)GlcNAc(b1-2)[Neu5Ac(a2-3)Gal(b1-4)GlcNAc(b1-6)]Man(a1-6)]Man(b1-4)GlcNAc(b1-4)GlcNAc
Method in brief: as §1

[21] = biological target: Neu5Ac(a2-3)Gal(b1-4)GlcNAc(b1-2)[Neu5Ac(a2-3)Gal(b1-4)GlcNAc(b1-4)]Man(a1-3)[GlcNAc(b1-4)][Neu5Ac(a2-3)Gal(b1-4)GlcNAc(b1-4)Man(a1-6)]Man(b1-4)GlcNAc(b1-4)GlcNAc
Method in brief: as §1

[22] = biological target: Neu5Ac(a2-3)Gal(b1-4)GlcNAc(b1-2)[Neu5Ac(a2-3)Gal(b1-4)GlcNAc(b1-6)]Man(a1-6)[Neu5Ac(a2-3)Gal(b1-4)GlcNAc(b1-2)Man(a1-3)][GlcNAc(b1-4)]Man(b1-4)GlcNAc(b1-4)GlcNAc
Method in brief: as §1

B1: BDCA-2 (Homo sapiens), Q8WTT0 (protein)
chain: MVPEEEPQDREKGLWWFQLKVWSMAVVSILLLSVCFTVSSVVPHNFMYSKTVKRLSKLREYQQYHPSLTCVMEGKDIEDWSCCPTPWTSFQSSCYFISTGMQSWTKSQKNCSVMGADLVVINTREEQDFIIQNLKRNSSYFLGLSDPGGRRHWQWVDQTPYNENVTFWHSGEPNNLDERCAIINFRSSEEWGWNDIHCHVPQKSICKMKKIYI
[1]
  glycan array binding signal (z-score): -0.173
[2]
  glycan array binding signal (z-score): -0.145
[3]
  glycan array binding signal (z-score): -0.157
[4]
  glycan array binding signal (z-score): -0.169
[5]
  glycan array binding signal (z-score): -0.322
[6]
  glycan array binding signal (z-score): -0.28
[7]
  glycan array binding signal (z-score): -0.175
[8]
  glycan array binding signal (z-score): -0.166
[9]
  glycan array binding signal (z-score): -0.194
[10]
  glycan array binding signal (z-score): -0.192
[11]
  glycan array binding signal (z-score): -0.155
[12]
  glycan array binding signal (z-score): -0.188
[13]
  glycan array binding signal (z-score): -0.146
Neu5Ac(a2-3)Gal(b1-4)Glc
  glycan array binding signal (z-score): -0.202
[14]
  glycan array binding signal (z-score): -0.303
[15]
  glycan array binding signal (z-score): -0.003
[16]
  glycan array binding signal (z-score): -0.174
[17]
  glycan array binding signal (z-score): -0.23
[18]
  glycan array binding signal (z-score): -0.168
[19]
  glycan array binding signal (z-score): -0.156
[20]
  glycan array binding signal (z-score): -0.159
[21]
  glycan array binding signal (z-score): -0.171
[22]
  glycan array binding signal (z-score): -0.182
